# Measurements taken from the supplement of paper PMC8728848.
# The list shows a part of the results.
# B1: RBMC1 (Vibrio cholerae) (protein)
# chain: QQSQRVVTADNLMYLRSGFAIDAIGTTVNNLVGGPVQGTNGGVLRAPIALDQLQSVEVTSGLYNWGGYHIVAIKFTMKDGSSVLLGSTHYASNKKVETYTVPQGKRIKQINVWTGGWLVEGFQFVY
# How the values were obtained:
# Experiment in all cases: glycan array binding signal (z-score within array); higher = stronger binding
# Conditions in all cases: glycan notation: IUPAC condensed, linker removed
# [1] = target: Fuc(a1-3)[Gal3S(b1-4)]GlcNAc6S
# Method in brief: (§1)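 From the Consortium for Functional Glycomics database, 3228 arrays were curated, keeping only those whose protein sequence was available. Binding is given as a within-array Z-score averaged across arrays sharing a protein sequence and across linkers. Negative Z-scores can be read as non-binding.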
# [2] = target: Fuc(a1-3)[GalNAc(b1-4)]GlcNAc
# Method in brief: as §1
# [3] = target: Fuc(a1-3)[GalNAc(b1-4)]GlcNAc6S
# Method in brief: as §1
# [4] = target: Fuc(a1-4)GlcNAc
# Method in brief: as §1
# [5] = target: Fuc(b1-3)GlcNAc
# Method in brief: as §1
# [6] = target: Gal(a1-2)Gal
# Method in brief: as §1
# [7] = target: Gal(a1-3)Gal
# Method in brief: as §1
# [8] = target: Gal(a1-3)Gal(b1-3)GlcNAc
# Method in brief: as §1
# [9] = target: Gal(a1-3)Gal(b1-3)GlcNAc(b1-2)Man
# Method in brief: as §1
# [10] = target: Gal(a1-3)Gal(b1-3)GlcNAc(b1-2)Man(a1-3)[Gal(a1-3)Gal(b1-3)GlcNAc(b1-2)Man(a1-6)]Man(b1-4)GlcNAc(b1-4)GlcNAc
# Method in brief: as §1
# [11] = target: Gal(a1-3)Gal(b1-3)GlcNAc(b1-3)GalNAc
# Method in brief: as §1
# [12] = target: Gal(a1-3)Gal(b1-3)GlcNAc(b1-6)GalNAc
# Method in brief: as §1
# [13] = target: Gal(a1-3)Gal(b1-3)[Fuc(a1-4)]GlcNAc(b1-2)Man(a1-3)[Gal(a1-3)Gal(b1-3)[Fuc(a1-4)]GlcNAc(b1-2)Man(a1-6)]Man(b1-4)GlcNAc(b1-4)GlcNAc
# Method in brief: as §1
# [14] = target: Gal(a1-3)Gal(b1-4)Glc
# Method in brief: as §1
# [15] = target: Gal(a1-3)Gal(b1-4)GlcNAc
# Method in brief: as §1
# [16] = target: Gal(a1-3)Gal(b1-4)GlcNAc(b1-2)Man
# Method in brief: as §1
# [17] = target: Gal(a1-3)Gal(b1-4)GlcNAc(b1-2)Man(a1-3)[Gal(a1-3)Gal(b1-4)GlcNAc(b1-2)Man(a1-6)]Man(b1-4)GlcNAc(b1-4)GlcNAc
# Method in brief: as §1
# [18] = target: Gal(a1-3)Gal(b1-4)GlcNAc(b1-3)GalNAc
# Method in brief: as §1
# [19] = target: Gal(a1-3)Gal(b1-4)GlcNAc(b1-6)GalNAc
# Method in brief: as §1
# [20] = target: Gal(a1-3)Gal(b1-4)[Fuc(a1-3)]GlcNAc
# Method in brief: as §1
# [21] = target: Gal(a1-3)Gal(b1-4)[Fuc(a1-3)]GlcNAc(b1-2)Man(a1-3)[Gal(a1-3)Gal(b1-4)[Fuc(a1-3)]GlcNAc(b1-2)Man(a1-6)]Man(b1-4)GlcNAc(b1-4)GlcNAc
# Method in brief: as §1
# [22] = target: Gal(a1-3)GalNAc
# Method in brief: as §1
# [23] = target: Gal(a1-3)[Gal(a1-4)]Gal(b1-4)GlcNAc
# Method in brief: as §1
# [24] = target: Gal(a1-4)Gal(b1-3)GlcNAc(b1-2)Man(a1-3)[Gal(a1-4)Gal(b1-3)GlcNAc(b1-2)Man(a1-6)]Man(b1-4)GlcNAc(b1-4)GlcNAc
# Method in brief: as §1
# [25] = target: Gal(a1-4)Gal(b1-4)Glc
# Method in brief: as §1
# [26] = target: Gal(a1-4)Gal(b1-4)GlcNAc
# Method in brief: as §1
# [27] = target: Gal(a1-4)Gal(b1-4)GlcNAc(b1-2)Man(a1-3)[Gal(a1-4)Gal(b1-4)GlcNAc(b1-2)Man(a1-6)]Man(b1-4)GlcNAc(b1-4)GlcNAc
# Method in brief: as §1
# [28] = target: Gal(a1-4)Gal(b1-4)GlcNAc(b1-3)Gal(b1-4)Glc
# Method in brief: as §1
# [29] = target: Gal(a1-4)GlcNAc
# Method in brief: as §1
# [30] = target: Gal(a1-6)Glc
# Method in brief: as §1
# [31] = target: Gal(b1-2)Gal
# Method in brief: as §1
# [32] = target: Gal(b1-3)Gal
# Method in brief: as §1
# [33] = target: Gal(b1-3)Gal(b1-4)GlcNAc
# Method in brief: as §1
# [34] = target: Gal(b1-3)GalNAc
# Method in brief: as §1
# [35] = target: Gal(b1-3)GalNAc(a1-3)[Fuc(a1-2)]Gal(b1-4)Glc
# Method in brief: as §1
# [36] = target: Gal(b1-3)GalNAc(a1-3)[Fuc(a1-2)]Gal(b1-4)GlcNAc
# Method in brief: as §1
# [37] = target: Gal(b1-3)GalNAc(b1-3)Gal
# Method in brief: as §1
# [38] = target: Gal(b1-3)GalNAc(b1-3)Gal(a1-4)Gal(b1-4)Glc
# Method in brief: as §1
# [39] = target: Gal(b1-3)GalNAc(b1-4)Gal(b1-4)Glc
# Method in brief: as §1
# [40] = target: Gal(b1-3)GalNAc(b1-4)[Neu5Ac(a2-3)]Gal(b1-4)Glc
# Method in brief: as §1
# [41] = target: Gal(b1-3)GlcNAc
# Method in brief: as §1
# [42] = target: Gal(b1-3)GlcNAc(a1-3)Gal(b1-4)GlcNAc
# Method in brief: as §1
# [43] = target: Gal(b1-3)GlcNAc(a1-6)Gal(b1-4)GlcNAc
# Method in brief: as §1
# [44] = target: Gal(b1-3)GlcNAc(b1-2)Man
# Method in brief: as §1
# [45] = target: Gal(b1-3)GlcNAc(b1-2)Man(a1-3)[Gal(b1-3)GlcNAc(b1-2)Man(a1-6)]Man(b1-4)GlcNAc(b1-4)GlcNAc
# Method in brief: as §1
binder,measurement,setting,value
B1,glycan array binding signal (z-score),[1],-0.233
same,glycan array binding signal (z-score),[2],-0.35
same,glycan array binding signal (z-score),[3],-0.254
same,glycan array binding signal (z-score),[4],-0.041
same,glycan array binding signal (z-score),[5],-0.422
same,glycan array binding signal (z-score),[6],-0.395
same,glycan array binding signal (z-score),[7],-0.302
same,glycan array binding signal (z-score),[8],-0.424
same,glycan array binding signal (z-score),[9],-0.195
same,glycan array binding signal (z-score),[10],0.94
same,glycan array binding signal (z-score),[11],-0.245
same,glycan array binding signal (z-score),[12],-0.341
same,glycan array binding signal (z-score),[13],0.377
same,glycan array binding signal (z-score),[14],-0.224
same,glycan array binding signal (z-score),[15],-0.38
same,glycan array binding signal (z-score),[16],-0.326
same,glycan array binding signal (z-score),[17],2.77
same,glycan array binding signal (z-score),[18],-0.282
same,glycan array binding signal (z-score),[19],-0.399
same,glycan array binding signal (z-score),[20],-0.359
same,glycan array binding signal (z-score),[21],0.704
same,glycan array binding signal (z-score),[22],-0.237
same,glycan array binding signal (z-score),[23],-0.407
same,glycan array binding signal (z-score),[24],1.41
same,glycan array binding signal (z-score),[25],-0.141
same,glycan array binding signal (z-score),[26],-0.178
same,glycan array binding signal (z-score),[27],3.8
same,glycan array binding signal (z-score),[28],-0.156
same,glycan array binding signal (z-score),[29],-0.353
same,glycan array binding signal (z-score),[30],-0.397
same,glycan array binding signal (z-score),[31],-0.279
same,glycan array binding signal (z-score),[32],-0.323
same,glycan array binding signal (z-score),[33],-0.296
same,glycan array binding signal (z-score),[34],-0.3
same,glycan array binding signal (z-score),[35],-0.256
same,glycan array binding signal (z-score),[36],-0.309
same,glycan array binding signal (z-score),[37],-0.237
same,glycan array binding signal (z-score),[38],-0.267
same,glycan array binding signal (z-score),[39],-0.362
same,glycan array binding signal (z-score),[40],-0.362
same,glycan array binding signal (z-score),[41],-0.37
same,glycan array binding signal (z-score),[42],-0.31
same,glycan array binding signal (z-score),[43],-0.216
same,glycan array binding signal (z-score),[44],-0.204
same,glycan array binding signal (z-score),[45],2.48
